Data from the BET-seq Pho4 binding data (Le et al. 2018).
This is one part of the list. The energies were worked out here from pooled read counts, against the library average; single values are noisy.

These sequences were tested against T1, Pho4 (S. cerevisiae) (UniProt P07270) (assay: relative binding free energy (BET-seq); higher = weaker binding). Conditions: reference: library average.
T1 sequence: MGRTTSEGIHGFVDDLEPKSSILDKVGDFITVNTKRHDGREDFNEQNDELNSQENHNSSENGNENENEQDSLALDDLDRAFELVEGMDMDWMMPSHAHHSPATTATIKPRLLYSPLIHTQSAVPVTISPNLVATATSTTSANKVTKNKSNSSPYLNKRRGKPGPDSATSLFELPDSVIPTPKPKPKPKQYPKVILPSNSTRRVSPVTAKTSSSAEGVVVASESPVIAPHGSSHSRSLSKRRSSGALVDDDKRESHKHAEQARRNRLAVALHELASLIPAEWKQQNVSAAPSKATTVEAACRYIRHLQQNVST

Sequence	relative binding free energy
TATGACACGTGGAGTG	-0.09 kcal/mol
TAATGCACGTGTTGAA	-0.07 kcal/mol
TTTGGCACGTGTACGC	-0.08 kcal/mol
AGGTGCACGTGGACGA	-0.04 kcal/mol
CGCGGCACGTGGAGGC	0.05 kcal/mol
TTCAACACGTGGCGGG	0.09 kcal/mol
AGTGCCACGTGGCGTT	-0.32 kcal/mol
GTTATCACGTGGATGT	0.3 kcal/mol
ATTTTCACGTGAATCA	0.41 kcal/mol
GGGTGCACGTGATGAA	0.17 kcal/mol
TTAATCACGTGGTCAA	0.07 kcal/mol
TTCATCACGTGGTGTC	0.1 kcal/mol
TGATTCACGTGTTCGA	0.25 kcal/mol
CTGATCACGTGGCGTG	0.11 kcal/mol
TAATACACGTGAAATG	0.42 kcal/mol
TAGGTCACGTGAGGGT	0.36 kcal/mol
TGAGTCACGTGTGAGG	0.1 kcal/mol
GTTAACACGTGGTCTT	-0.12 kcal/mol
ATTTTCACGTGAGAGT	0.33 kcal/mol
TAGGGCACGTGTAGAG	0.02 kcal/mol
TTTGCCACGTGTTATA	-0.14 kcal/mol
GGGGCCACGTGATTTT	0.19 kcal/mol
AGAGGCACGTGGTGTA	-0.12 kcal/mol

Sequence	relative binding free energy
CATGGCACGTGTCGGT	-0.03 kcal/mol
AATTGCACGTGGCAAG	-0.05 kcal/mol
TTATACACGTGGGTAA	-0.1 kcal/mol
GCTTGCACGTGTGATT	0.1 kcal/mol
GTGTGCACGTGTTATG	0.14 kcal/mol
ATGTGCACGTGGGCAG	-0.24 kcal/mol
AGGTTCACGTGATCCG	0.38 kcal/mol
CTTGGCACGTGCGTAG	-0.26 kcal/mol
GTAAGCACGTGTTCGG	0.01 kcal/mol
CTTTGCACGTGCAGGT	0.01 kcal/mol
CATTCCACGTGGGTGT	0.03 kcal/mol
CTGAACACGTGATGTG	0.15 kcal/mol
ATGGGCACGTGGACGG	-0.15 kcal/mol
GTTTACACGTGAATGT	0.26 kcal/mol
TGTCGCACGTGGCGGA	-0.16 kcal/mol
GCGGGCACGTGAGTGG	0.18 kcal/mol
TTTGGCACGTGTAAAT	0.07 kcal/mol
GAGTTCACGTGAGAGT	0.39 kcal/mol
GATGGCACGTGTGAAG	0.08 kcal/mol
AGTAGCACGTGATAGA	0.02 kcal/mol
TAGGCCACGTGGGGAT	-0.08 kcal/mol
GAGATCACGTGGGGGG	0.05 kcal/mol
ATATTCACGTGTTAGT	0.15 kcal/mol

Sequence	relative binding free energy
TTGTTCACGTGGAGAA	0.23 kcal/mol
TTTTGCACGTGCAATT	0.11 kcal/mol
CTTCGCACGTGCGGGG	-0.1 kcal/mol
CTTATCACGTGCGTTA	0.22 kcal/mol
TTTTGCACGTGGAGTC	0.05 kcal/mol
GTGCGCACGTGGACTG	0.01 kcal/mol
CATTACACGTGGTTGA	0.08 kcal/mol
GATCGCACGTGGAAGG	0.14 kcal/mol
AGATTCACGTGAGTGG	0.35 kcal/mol
GGATGCACGTGACAGG	0.12 kcal/mol
TAGGGCACGTGGGACT	-0.21 kcal/mol
TTGGGCACGTGGGTTG	-0.18 kcal/mol
TAATACACGTGTAAGT	0.06 kcal/mol
CAATGCACGTGGTGTT	-0.11 kcal/mol
TGCTGCACGTGAGGTG	0.17 kcal/mol
GTAGACACGTGAGGGG	0.24 kcal/mol
CTATTCACGTGATTGG	0.33 kcal/mol
TGGAACACGTGTGCAG	0.17 kcal/mol
GGTATCACGTGATATA	0.3 kcal/mol
TTAGGCACGTGTATGG	-0.06 kcal/mol
GGGGACACGTGGCGGT	0.01 kcal/mol
GGCTTCACGTGGTGAA	0.22 kcal/mol
TATGACACGTGGTTGG	-0.05 kcal/mol

Sequence	relative binding free energy
CGAAGCACGTGTAAGG	0.06 kcal/mol
CTTGTCACGTGCATTT	0.07 kcal/mol
CGGTACACGTGGTGGA	-0.08 kcal/mol
ATATGCACGTGGATGA	0.03 kcal/mol
GGGGACACGTGTTTGA	0.18 kcal/mol
TTCTTCACGTGGGGAA	0.12 kcal/mol
TAGGGCACGTGGAGTC	0 kcal/mol
AAGTGCACGTGTCCGG	0.11 kcal/mol
CAAGTCACGTGCGGGG	0.13 kcal/mol
AGGTTCACGTGTAATG	0.23 kcal/mol
TTTGTCACGTGTGGGC	0.18 kcal/mol
GTCTACACGTGAGTGT	0.28 kcal/mol
TCTTTCACGTGAGTAT	0.32 kcal/mol
GTTTGCACGTGATAGC	0.06 kcal/mol
GGTAACACGTGGAGGA	0.07 kcal/mol
AGAGACACGTGGTGGT	-0.07 kcal/mol
TGTAACACGTGATGTT	0.12 kcal/mol
CTTTGCACGTGGTAGC	-0.04 kcal/mol
ATTTTCACGTGTGTTT	0.37 kcal/mol
GTGCTCACGTGCGGGT	-0.01 kcal/mol
GTTTTCACGTGAATGT	0.42 kcal/mol
TTAATCACGTGATTTT	0.3 kcal/mol
TTGTACACGTGCGAGT	0.08 kcal/mol

Sequence	relative binding free energy
GTTTGCACGTGTTAGT	0.11 kcal/mol
CTGGACACGTGTGGTA	0.11 kcal/mol
TGGCGCACGTGGGAGT	-0.2 kcal/mol
TGATACACGTGAGATG	0.36 kcal/mol
TGATGCACGTGGAGAG	0.12 kcal/mol
TAGCGCACGTGATGGT	0.03 kcal/mol
GTGGTCACGTGGTTAC	0.17 kcal/mol
GTGTCCACGTGTTATG	0.13 kcal/mol
TATATCACGTGTCTTA	0.21 kcal/mol
ATTACCACGTGATGTG	0.17 kcal/mol
GTAATCACGTGATTAG	0.24 kcal/mol
AGGGGCACGTGATCTT	0.04 kcal/mol
AATGGCACGTGTTCAG	-0.08 kcal/mol
TTGGCCACGTGGTAGT	0 kcal/mol
GTTAGCACGTGACTGG	0.04 kcal/mol
GCTTACACGTGGTTAG	0.11 kcal/mol
TGCAGCACGTGGGATG	-0.03 kcal/mol
GTTGTCACGTGGGAGG	-0.03 kcal/mol
TTGATCACGTGGTTGT	0.08 kcal/mol
TTTGTCACGTGGCTCT	-0.08 kcal/mol
CGGGTCACGTGTGGAA	0.13 kcal/mol
CGTATCACGTGGTATT	0.02 kcal/mol
TGTGTCACGTGCGATT	0.19 kcal/mol
